Experimental data: the supplement of paper PMC8728848
Some of the results follow.

Tests used:
Experiment in all cases: glycan array binding signal (z-score within array); higher = stronger binding
Details in all cases: glycan notation: IUPAC condensed, linker removed
[1] = biological target: Neu5Ac(a2-3)Gal(b1-3)GlcNAc6S
How it was run: (§1)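 The Consortium for Functional Glycomics database supplied 3228 glycan arrays, of which those lacking an available protein sequence were dropped. The binding signal, a within-array Z-score, was averaged across arrays of the same protein sequence and across linkers. Negative scores can be read as non-binding.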

[2] = biological target: Neu5Ac(a2-3)Gal(b1-3)[Fuc(a1-4)]GlcNAc
How it was run: as §1

[3] = biological target: Neu5Ac(a2-3)Gal(b1-3)[Fuc(a1-4)]GlcNAc(b1-3)Gal(b1-3)[Fuc(a1-4)]GlcNAc
How it was run: as §1

[4] = biological target: Neu5Ac(a2-3)Gal(b1-3)[Fuc(a1-4)]GlcNAc(b1-3)Gal(b1-4)[Fuc(a1-3)]GlcNAc
How it was run: as §1

[5] = biological target: Neu5Ac(a2-3)Gal(b1-3)[GlcNAc(b1-6)]GalNAc
How it was run: as §1

[6] = biological target: Neu5Ac(a2-3)Gal(b1-3)[Neu5Ac(a2-6)]GalNAc
How it was run: as §1

[7] = biological target: Neu5Ac(a2-3)Gal(b1-3)[Neu5Ac(a2-6)]GlcNAc(b1-3)[Fuc(a1-3)[Gal(b1-4)]GlcNAc(b1-6)]Gal(b1-4)Glc
How it was run: as §1

[8] = biological target: Neu5Ac(a2-3)Gal(b1-3)]Neu5Ac(a2-3)Gal(b1-4)]GlcNAc
How it was run: as §1

[9] = biological target: Neu5Ac(a2-3)Gal(b1-4)Glc
How it was run: as §1

[10] = biological target: Neu5Ac(a2-3)Gal(b1-4)GlcNAc
How it was run: as §1

[11] = biological target: Neu5Ac(a2-3)Gal(b1-4)GlcNAc(b1-2)Man
How it was run: as §1

[12] = biological target: Neu5Ac(a2-3)Gal(b1-4)GlcNAc(b1-2)Man(a1-3)[GlcNAc(b1-4)][Neu5Ac(a2-3)Gal(b1-4)GlcNAc(b1-2)Man(a1-6)]Man(b1-4)GlcNAc(b1-4)GlcNAc
How it was run: as §1

[13] = biological target: Neu5Ac(a2-3)Gal(b1-4)GlcNAc(b1-2)Man(a1-3)[Neu5Ac(a2-3)Gal(b1-4)GlcNAc(b1-2)Man(a1-6)]Man(b1-4)GlcNAc(b1-4)GlcNAc
How it was run: as §1

[14] = biological target: Neu5Ac(a2-3)Gal(b1-4)GlcNAc(b1-2)Man(a1-3)[Neu5Ac(a2-3)Gal(b1-4)GlcNAc(b1-2)Man(a1-6)]Man(b1-4)GlcNAc(b1-4)[Fuc(a1-6)]GlcNAc
How it was run: as §1

[15] = biological target: Neu5Ac(a2-3)Gal(b1-4)GlcNAc(b1-2)Man(a1-3)[Neu5Ac(a2-6)Gal(b1-4)GlcNAc(b1-2)Man(a1-6)]Man(b1-4)GlcNAc(b1-4)GlcNAc
How it was run: as §1

[16] = biological target: Neu5Ac(a2-3)Gal(b1-4)GlcNAc(b1-2)[Neu5Ac(a2-3)Gal(b1-4)GlcNAc(b1-4)]Man(a1-3)[GlcNAc(b1-4)][Neu5Ac(a2-3)Gal(b1-4)GlcNAc(b1-2)[Neu5Ac(a2-3)Gal(b1-4)GlcNAc(b1-6)]Man(a1-6)]Man(b1-4)GlcNAc(b1-4)GlcNAc
How it was run: as §1

[17] = biological target: Neu5Ac(a2-3)Gal(b1-4)GlcNAc(b1-2)[Neu5Ac(a2-3)Gal(b1-4)GlcNAc(b1-4)]Man(a1-3)[GlcNAc(b1-4)][Neu5Ac(a2-3)Gal(b1-4)GlcNAc(b1-4)Man(a1-6)]Man(b1-4)GlcNAc(b1-4)GlcNAc
How it was run: as §1

[18] = biological target: Neu5Ac(a2-3)Gal(b1-4)GlcNAc(b1-2)[Neu5Ac(a2-3)Gal(b1-4)GlcNAc(b1-6)]Man(a1-6)[Neu5Ac(a2-3)Gal(b1-4)GlcNAc(b1-2)Man(a1-3)]Man(b1-4)GlcNAc(b1-4)GlcNAc
How it was run: as §1

[19] = biological target: Neu5Ac(a2-3)Gal(b1-4)GlcNAc(b1-2)[Neu5Ac(a2-3)Gal(b1-4)GlcNAc(b1-6)]Man(a1-6)[Neu5Ac(a2-3)Gal(b1-4)GlcNAc(b1-2)Man(a1-3)][GlcNAc(b1-4)]Man(b1-4)GlcNAc(b1-4)GlcNAc
How it was run: as §1

[20] = biological target: Neu5Ac(a2-3)Gal(b1-4)GlcNAc(b1-3)Gal
How it was run: as §1

[21] = biological target: Neu5Ac(a2-3)Gal(b1-4)GlcNAc(b1-3)Gal(b1-3)GlcNAc
How it was run: as §1

[22] = biological target: Neu5Ac(a2-3)Gal(b1-4)GlcNAc(b1-3)Gal(b1-4)GlcNAc
How it was run: as §1

[23] = biological target: Neu5Ac(a2-3)Gal(b1-4)GlcNAc(b1-3)Gal(b1-4)GlcNAc(b1-2)Man(a1-3)[Neu5Ac(a2-3)Gal(b1-4)GlcNAc(b1-3)Gal(b1-4)GlcNAc(b1-2)Man(a1-6)]Man(b1-4)GlcNAc(b1-4)GlcNAc
How it was run: as §1

[24] = biological target: Neu5Ac(a2-3)Gal(b1-4)GlcNAc(b1-3)Gal(b1-4)GlcNAc(b1-3)Gal(b1-4)GlcNAc
How it was run: as §1

[25] = biological target: Neu5Ac(a2-3)Gal(b1-4)GlcNAc(b1-3)Gal(b1-4)GlcNAc(b1-3)Gal(b1-4)GlcNAc(b1-2)Man(a1-3)[Neu5Ac(a2-3)Gal(b1-4)GlcNAc(b1-3)Gal(b1-4)GlcNAc(b1-3)Gal(b1-4)GlcNAc(b1-2)Man(a1-6)]GalNAc
How it was run: as §1

[26] = biological target: Neu5Ac(a2-3)Gal(b1-4)GlcNAc(b1-3)Gal(b1-4)GlcNAc(b1-3)GalNAc
How it was run: as §1

[27] = biological target: Neu5Ac(a2-3)Gal(b1-4)GlcNAc(b1-3)Gal(b1-4)GlcNAc(b1-3)[Neu5Ac(a2-3)Gal(b1-4)GlcNAc(b1-3)Gal(b1-4)GlcNAc(b1-6)]GalNAc
How it was run: as §1

[28] = biological target: Neu5Ac(a2-3)Gal(b1-4)GlcNAc(b1-3)Gal(b1-4)GlcNAc(b1-6)[Gal(b1-3)]GalNAc
How it was run: as §1

[29] = biological target: Neu5Ac(a2-3)Gal(b1-4)GlcNAc(b1-3)Gal(b1-4)[Fuc(a1-3)]GlcNAc
How it was run: as §1

[30] = biological target: Neu5Ac(a2-3)Gal(b1-4)GlcNAc(b1-3)GalNAc
How it was run: as §1

[31] = biological target: Neu5Ac(a2-3)Gal(b1-4)GlcNAc(b1-3)[Neu5Ac(a2-3)Gal(b1-4)GlcNAc(b1-6)]GalNAc
How it was run: as §1

[32] = biological target: Neu5Ac(a2-3)Gal(b1-4)GlcNAc(b1-6)GalNAc
How it was run: as §1

[33] = biological target: Neu5Ac(a2-3)Gal(b1-4)GlcNAc(b1-6)[Gal(b1-3)]GalNAc
How it was run: as §1

[34] = biological target: Neu5Ac(a2-3)Gal(b1-4)GlcNAc(b1-6)[Neu5Ac(a2-3)Gal(b1-3)]GalNAc
How it was run: as §1

[35] = biological target: Neu5Ac(a2-3)Gal(b1-4)GlcNAc6S
How it was run: as §1

[36] = biological target: Neu5Ac(a2-3)Gal(b1-4)[Fuc(a1-3)]GlcNAc
How it was run: as §1

[37] = biological target: Neu5Ac(a2-3)Gal(b1-4)[Fuc(a1-3)]GlcNAc(b1-2)Man
How it was run: as §1

[38] = biological target: Neu5Ac(a2-3)Gal(b1-4)[Fuc(a1-3)]GlcNAc(b1-3)Gal
How it was run: as §1

[39] = biological target: Neu5Ac(a2-3)Gal(b1-4)[Fuc(a1-3)]GlcNAc(b1-3)Gal(b1-4)GlcNAc
How it was run: as §1

[40] = biological target: Neu5Ac(a2-3)Gal(b1-4)[Fuc(a1-3)]GlcNAc(b1-3)Gal(b1-4)[Fuc(a1-3)]GlcNAc(b1-3)Gal(b1-4)[Fuc(a1-3)]GlcNAc
How it was run: as §1

[41] = biological target: Neu5Ac(a2-3)Gal(b1-4)[Fuc(a1-3)]GlcNAc(b1-3)GalNAc
How it was run: as §1

[42] = biological target: Neu5Ac(a2-3)Gal(b1-4)[Fuc(a1-3)]GlcNAc(b1-6)[Gal(b1-3)]GalNAc
How it was run: as §1

[43] = biological target: Neu5Ac(a2-3)Gal(b1-4)[Fuc(a1-3)]GlcNAc(b1-6)[Neu5Ac(a2-3)Gal(b1-3)]GalNAc
How it was run: as §1

[44] = biological target: Neu5Ac(a2-3)Gal(b1-4)[Fuc(a1-3)]GlcNAc6S
How it was run: as §1

[45] = biological target: Neu5Ac(a2-3)Gal6S(b1-4)GlcNAc
How it was run: as §1

B1: Gal 3C (Homo sapiens), P17931 (protein)
chain: YGAPAGPLIVPYNLPLPGGVVPRMLITILGTVKPNANRIALDFQRGNDVAFHFNPRFNENNRRVIVCNTKLDNNWGREERQSVFPFESGKPFKIQVLVEPDHFKVAVNDAHLLQYNHRVKKLNEISKLGISGDIDLTSASYTMI
For B1, the “glycan array binding signal (z-score)” value [1] was 0.029, the “glycan array binding signal (z-score)” value [2] was -0.303 and the “glycan array binding signal (z-score)” value [3] was -0.28. For the same binder, the “glycan array binding signal (z-score)” value [4] was -0.25, the “glycan array binding signal (z-score)” value [5] was -0.325 and the “glycan array binding signal (z-score)” value [6] was -0.3. For the same binder, the “glycan array binding signal (z-score)” value [7] was -0.288, the “glycan array binding signal (z-score)” value [8] was -0.314 and the “glycan array binding signal (z-score)” value [9] was -0.126. For the same binder, the “glycan array binding signal (z-score)” value [10] was -0.279, the “glycan array binding signal (z-score)” value [11] was -0.168 and the “glycan array binding signal (z-score)” value [12] was -0.345. For the same binder, the “glycan array binding signal (z-score)” value [13] was -0.347, the “glycan array binding signal (z-score)” value [14] was -0.232 and the “glycan array binding signal (z-score)” value [15] was -0.296. The “glycan array binding signal (z-score)” value [16] was -0.305, the “glycan array binding signal (z-score)” value [17] was -0.332 and the “glycan array binding signal (z-score)” value [18] was -0.272. The “glycan array binding signal (z-score)” value [19] was -0.336, the “glycan array binding signal (z-score)” value [20] was -0.306 and the “glycan array binding signal (z-score)” value [21] was -0.27. For the same binder, the “glycan array binding signal (z-score)” value [22] was -0.314, the “glycan array binding signal (z-score)” value [23] was 0.403 and the “glycan array binding signal (z-score)” value [24] was 0.735. The “glycan array binding signal (z-score)” value [25] was 0.386, the “glycan array binding signal (z-score)” value [26] was -0.341 and the “glycan array binding signal (z-score)” value [27] was -0.01. The “glycan array binding signal (z-score)” value [28] was -0.12, the “glycan array binding signal (z-score)” value [29] was -0.354 and the “glycan array binding signal (z-score)” value [30] was -0.312. For the same binder, the “glycan array binding signal (z-score)” value [31] was -0.236, the “glycan array binding signal (z-score)” value [32] was -0.29 and the “glycan array binding signal (z-score)” value [33] was -0.315. For the same binder, the “glycan array binding signal (z-score)” value [34] was -0.284, the “glycan array binding signal (z-score)” value [35] was -0.236 and the “glycan array binding signal (z-score)” value [36] was -0.347. For the same binder, the “glycan array binding signal (z-score)” value [37] was -0.388, the “glycan array binding signal (z-score)” value [38] was -0.299 and the “glycan array binding signal (z-score)” value [39] was -0.191. The “glycan array binding signal (z-score)” value [40] was -0.096, the “glycan array binding signal (z-score)” value [41] was -0.047 and the “glycan array binding signal (z-score)” value [42] was -0.156. The “glycan array binding signal (z-score)” value [43] was -0.274, the “glycan array binding signal (z-score)” value [44] was -0.33 and the “glycan array binding signal (z-score)” value [45] was -0.279.
